Data: the supplement of paper PMC10126150
Sequences with one replicate were seen in a single cluster, so their values are uncertain.

Test system: ATP
Test: switch fluorescence ratio, 500 uM ATP over buffer (Cy3 cluster intensity, sum of 5 cycles each) (fold (ratio)); higher = stronger signal-on switching upon ATP binding; sequences stand for … in TCGTCGGCAGCGTCAGATGTGTATAAGAGACAGTTTTTTTTTTTTTTTTTTTTTTTTT…TC
Conditions: aptamer strand: ATP DNA aptamer (quencher-CACCTGGGGGAGTATTGCGGAGGAAGG + anchor), 100 nM annealed; ATP concentration: 500 uM; one replicate
Procedure, shortened: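 Imaging in selection buffer was followed by imaging after 15 min with 500 uM ATP at 22 °C, for Cy3-labelled switching-strand clusters annealed to 100 nM quencher-labelled ATP aptamer on a modified Illumina MiSeq flow-cell. Five of these buffer/ATP cycles ran, separated by NaOH stripping and re-annealing. The fluorescence ratio per cluster is summed target-cycle over summed buffer-cycle Cy3 intensity, averaged per switch-domain sequence; clusters outside 100-1000 RFU were removed.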
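Further: ATP exposure 15 min at 22 °C before imaging.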

| Sequence | switch fluorescence ratio |
| --- | --- |
| CGATGGCTAT | 1.09 |
| TTCCTGCTTT | 1.2 |
| TCAGTCCCG | 1 |
| GTTGGCCATA | 1.02 |
| AGTGTTTAGG | 1.04 |
| GCGCAGCGCC | 1.01 |
| ATCGTAGAAA | 1.04 |
| TTTCTAGAGG | 0.954 |
| CTAGACTGAA | 1.01 |
| TGATAGAAGC | 0.961 |
| AACGGTGGCG | 1.04 |
| AGATATGTAA | 1.02 |
| ATACGGCTGT | 0.987 |
| AGGCTAGTCT | 0.939 |
| AAGGGACCAA | 1.04 |
| TGCCTTCTTA | 1.06 |
| TTGTATCTGC | 0.955 |
| GACCCTGAGG | 1.06 |
| CCGTATTTAT | 0.959 |
| AGCTTCTAG | 1.04 |
| AAAGTATTCG | 0.978 |
| AAGGTATACT | 0.995 |
| TTTGTGTCAG | 1 |

| Sequence | switch fluorescence ratio |
| --- | --- |
| AGATTTGGA | 1.02 |
| ACAAGTGGGT | 1.02 |
| TGTACCTGGG | 1.02 |
| CATCAGCAGA | 2.29 |
| GGGCTAGCCT | 1.04 |
| GCTGGCGTAG | 0.972 |
| ATTTAATAAA | 1.02 |
| ATTATGAAGA | 1 |
| ATTCACCCAT | 1.1 |
| CAATTGCCAG | 1.02 |
| TAACTGACCA | 1.1 |
| GCCGTGGAAA | 1.03 |
| ATGTCACATA | 0.979 |
| AAGGGAAGC | 1.04 |
| TACCACTCTG | 1.02 |
| GTCGTTCAAA | 1.03 |
| ATTCTAACAA | 0.999 |
| TTTCTGAAAA | 1.05 |
| GGGCTTAATT | 0.997 |
| CCGGGCTACG | 1.08 |
| TTAGTGACCG | 1.05 |
| TCGTTCTTCG | 1.05 |
| CTTGTCGTCT | 1.05 |

| Sequence | switch fluorescence ratio |
| --- | --- |
| TTTCTGGCTC | 0.963 |
| TAGATCAAAT | 0.972 |
| ACAACCAGTG | 3.38 |
| GAATTGCGCC | 0.991 |
| GCTGTTTAAT | 0.996 |
| TTAATACATA | 1.07 |
| GGCTTTATCG | 1.03 |
| TATCTCCTGT | 1.01 |
| AGGTGTATGG | 1.06 |
| CCAGTGCAAG | 2.25 |
| CCGAAGGGAT | 1.25 |
| CAGAAGACTC | 0.997 |
| AGGTCGTTGA | 0.95 |
| AATCGCGCCG | 1.07 |
| GTGATGTGGG | 0.99 |
| ATAAGAGTGT | 1.01 |
| CGGGTCCTTT | 0.94 |
| GATGATGTCT | 1.11 |
| GCTGTATCGC | 0.921 |
| CATCTCTACA | 1.03 |
| TAGGTTAGTC | 0.948 |
| TAGCTCCTAG | 1.04 |
| TATTCGGGA | 1.02 |

| Sequence | switch fluorescence ratio |
| --- | --- |
| TAGACCGTAT | 1.33 |
| CAACACTGGT | 1.04 |
| AATATGCGT | 0.997 |
| ATGGTAAGTG | 0.928 |
| ATTTGTAACA | 0.977 |
| CAAGTGCAGG | 1.05 |
| ATCGCAGTTT | 2.16 |
| GGCTAAGTAA | 1.03 |
| GCGATAATAG | 1.13 |
| TTTTCAAAAC | 1.04 |
| TCCCAGCTGC | 2.14 |
| AAACGAGAAA | 0.996 |
| ACTTGTTGTG | 1.04 |
| GCCAGGTACG | 1.07 |
| CTCCGTCGTT | 1.38 |
| TGGGGGACCA | 1 |
| CTCCAGGCAC | 2.83 |
| CCGAAACAT | 1.62 |
| ACAGAATGGG | 0.942 |
| GAGAATAGCT | 1 |
| CTTGTGCTTC | 0.976 |
| TATTCCGAGC | 1.54 |
| TAAGAAAAGC | 0.978 |

| Sequence | switch fluorescence ratio |
| --- | --- |
| TACCCGAAGG | 0.939 |
| AGCAACTTCG | 1.01 |
| TTAGGAGCAA | 2.96 |
| CTACCCGGGG | 1.07 |
| CCGAGTATTG | 1.16 |
| TGAAACGGCT | 0.913 |
| CGCCCTGAGC | 0.994 |
| ACTAACCTGG | 1.16 |
| TACTTTATAT | 1.09 |
| CGTTATCAAT | 1.01 |
| GCGAAATCTC | 1.3 |
| CGGATCAGCG | 1 |
| TATGGTCTTC | 1.02 |
| GAGGCCAGAA | 1.01 |
| TGGATCCTTT | 1 |
| GCCTTAGAA | 1.03 |
| CCGGACGGGG | 1.06 |
| GTGTGTCGGC | 1.03 |
| AGAGGAGCAC | 1.18 |
| TCTCTTTGGG | 1.11 |
| GAGGGCCAA | 1 |
| TGAGAGGCG | 1.11 |
| AGAGGCCTGG | 0.967 |

| Sequence | switch fluorescence ratio |
| --- | --- |
| TGGATGCGTC | 0.997 |
| GTATGTACGT | 1.04 |
| CTACTGTTGA | 1.03 |
| GTAAAAATCT | 1.04 |
| TGGTGCA | 1.03 |
| ACCATATCAC | 1.12 |
| AGAGTTTCGG | 0.888 |
| AAGCGGTAGA | 1.05 |
| ATGGAGGTA | 0.992 |
| AGCGAACGAT | 1.06 |
| ATCTAGTGTG | 0.985 |
| CGGCATCGCC | 1.02 |
| GAAAGATGGG | 0.973 |
| GCATATAACA | 0.975 |
| GCGTACATGA | 0.991 |
| AATGCGCATT | 0.961 |
| TTTGGAAACA | 0.987 |
| TATGAAACG | 1.03 |
| AGCCTAGGAA | 0.984 |
| ATTGGGTGG | 1.01 |
| CGGTACCATG | 1.02 |
| TAAAATGTGT | 1.01 |
| TTCTCCGAGG | 1.09 |

| Sequence | switch fluorescence ratio |
| --- | --- |
| GGTTCATAAA | 0.968 |
| CATATACA | 1.1 |
| CAAGTTTATA | 0.923 |
| TACACGGGGA | 1.01 |
| AAACAGCGTC | 1.08 |
| ATCTTCCAAA | 1.06 |
| AATGCTTCGC | 0.976 |
| ATTTCGGTT | 0.988 |
| TAGATAACGG | 1.05 |
| TAGATAGTTC | 0.971 |
| TGAGCTAT | 1.34 |
| TGGAGGTACC | 1.03 |
| GCCTCGACAG | 0.989 |
| GTGAGGATAC | 1.02 |
| CTGGATGCTA | 1.18 |
| AATCGATCAC | 0.995 |
| TCGGATTGCA | 1.04 |
| AGAGGGTATT | 0.992 |
| GAAATGTTTT | 0.981 |
